The target in one assay is T1, Rat OX40 (rat, UniProt P15725 20-271).
T1 construct: whole, on cells; also called rat CD134
T1 sequence (looked up): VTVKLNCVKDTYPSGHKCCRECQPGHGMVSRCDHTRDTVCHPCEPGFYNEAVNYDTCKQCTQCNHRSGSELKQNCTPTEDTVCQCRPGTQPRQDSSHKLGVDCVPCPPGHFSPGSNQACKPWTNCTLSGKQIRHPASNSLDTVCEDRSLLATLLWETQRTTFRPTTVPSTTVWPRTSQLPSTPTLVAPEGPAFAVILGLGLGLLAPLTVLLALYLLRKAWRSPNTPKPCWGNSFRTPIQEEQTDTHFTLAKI
Nature of the assay: flow cytometry on activated primary rat CD4+ T cells. On the procedure:
Rat CD4⁺ T cells (1×10⁶ per mL complete medium) were cultured overnight in a T75 cell culture flask with 1 μg/mL concanavalin A (Con A) and 500 IU/mL IL-2, to activate T cells and induce OX40 expression, and incubated overnight. Activated CD4⁺ T cells were removed from the flask and 100,000 cells were transferred to each well of a non-tissue culture treated 96-well round-bottom plate for binding assays and washed with FACS buffer. Binding was performed with 10 μg/mL OX40mAb24, 9B12 or mouse anti-rat CD134, clone OX40 (positive control) antibody serially diluted 3-fold for a 10 point data curve in FACS buffer. For negative controls, 10 μg/mL R347 human IgG1 or mouse IgG1 clone MOPC-21 were serially diluted 6-fold for a 3 point data curve. 100 μL of OX40mAb24 control protein, 9B12 or clone OX40 antibody was added to CD4⁺ T cells in duplicate and incubated. Following primary incubation, cells were washed with 200 μL of 4° C. […] Following secondary antibody incubation, cells were processed for flow cytometry as described in Section 2.3.

Assay [1] deals with T2, Human OX40 (human, UniProt P43489 29-277).
T2 sequence: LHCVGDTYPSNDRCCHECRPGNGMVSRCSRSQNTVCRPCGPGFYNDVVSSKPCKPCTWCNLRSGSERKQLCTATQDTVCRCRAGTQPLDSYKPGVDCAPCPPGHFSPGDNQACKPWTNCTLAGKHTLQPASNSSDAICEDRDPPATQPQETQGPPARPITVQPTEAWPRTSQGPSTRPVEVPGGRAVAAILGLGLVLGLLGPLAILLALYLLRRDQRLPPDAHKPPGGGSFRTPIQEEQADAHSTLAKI
In words: cell-based or functional assay.

The target in assay [2] is T3, Human TNFRSF1β (TNFR2) expressed on HEK293 cells (human, UniProt P20333 23-461).
T3 construct: whole, on cells; also called TNFRSF1B; CD120b
T3 sequence (looked up): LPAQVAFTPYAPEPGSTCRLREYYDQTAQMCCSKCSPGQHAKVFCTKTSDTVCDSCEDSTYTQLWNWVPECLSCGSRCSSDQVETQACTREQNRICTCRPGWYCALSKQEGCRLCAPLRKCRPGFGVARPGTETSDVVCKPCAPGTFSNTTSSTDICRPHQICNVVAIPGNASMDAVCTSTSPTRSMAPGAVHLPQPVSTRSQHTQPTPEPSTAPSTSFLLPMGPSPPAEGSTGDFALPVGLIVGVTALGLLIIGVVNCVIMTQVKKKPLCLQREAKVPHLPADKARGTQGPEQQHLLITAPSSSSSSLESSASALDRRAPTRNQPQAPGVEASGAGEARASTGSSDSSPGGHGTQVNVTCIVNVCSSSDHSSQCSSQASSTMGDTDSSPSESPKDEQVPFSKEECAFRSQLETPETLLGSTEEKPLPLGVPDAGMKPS
In words: flow cytometry histogram, transiently transfected HEK293 cells, goat anti-human AlexaFluor 647 secondary [panel A]. The text has this: cDNA constructs capable of directing the expression of individual TNFRSF members, when transfected into mammalian cells, were obtained from Origene Technologies, Rockville, Md. These cDNA constructs were amplified and purified by the Protein Sciences group at MedImmune in Gaithersburg, Md. for use in transient transfections. […] Forty-eight hours post transfection, cells were removed from tissue culture plates by trypsinization. […] Cells were then suspended in cold FACS buffer (PBS+2% FBS) and plated into 96 well non-tissue culture-treated plates for binding studies with TNFRSF member-specific mAbs (Table 3-3) and OX40mAb24.
For binding of antibodies or OX40mAb24, HEK cells were pelleted, FACS buffer removed, and cells suspended in FACS buffer containing 2 μg/mL propidium iodide (PI) and either a fluorochrome-labeled mAb, specific for the transfected TNFRSF member, at a concentration recommended by the manufacturer or with OX40mAb24 at a concentration of 1 μg/mL. For binding controls, cells were separately incubated with fluorochrome-labeled isotype control antibodies. […] Thereafter, cells incubated with fluorochrome-labeled monoclonal antibodies were washed in cold FACS buffer and then binding events collected and analyzed by flow cytometry using an LSRII flow cytometer (BD Biosciences, San Jose, Calif.) and FlowJo software, as described in Section 3.2.3. […]

Assay [3] addresses T2, Human OX40. Nature of the assay: flow cytometry, equilibrium binding to human OX40-overexpressing Jurkat NFkB-luciferase clone 64 cells; mean of 3 experiments (StdErr). On the procedure:
Human OX40-overexpressing Jurkat NFκB-luciferase clone 64 cells were cultured in complete RPMI+10% FBS prior to binding experiments, without the need for activation.
(§1) OX40mAb24 (10 μg/mL) or 9B12 (10 μg/mL) was diluted over a 17 point 2-fold dilution series. OX40mAb24 was added to 100,000 cells (activated primary CD4⁺ T cells or human OX40-overexpressing Jurkat NFkB-luciferase clone 64 cells) per well and incubated for one hour at 4° C. For background binding subtraction, cells were incubated in the presence of secondary antibody alone. […] Following secondary antibody incubation, cells were washed and suspended in 100 μL FACS buffer for flow cytometry analysis on a BD LSRII flow cytometer as described below.

Assay [4] deals with T2, Human OX40. In words: flow cytometry on activated primary human CD4+ T cells; 50% receptor occupancy calculated from Kd. The protocol: as §1
Assay [5] has as its target T2, Human OX40. In words: cell-based or functional assay. The source holds these as a separate data set.
The target in assay [6] is T2, Human OX40. In words: cell-based or functional assay. This is another data set of the same source.

B1: OX40mAb24 (antibody, human IgG1, kappa)
heavy: QVQLQESGPGLVKPSQTLSLTCAVYGGSFSSGYWNWIRKHPGKGLEYIGYISYNGITYHNPSLKSRITINRDTSKNQYSLQLNSVTPEDTAVYYCARYKYDYDGGHAMDYWGQGTLVTVSSASTKGPSVFPLAPSSKSTSGGTAALGCLVKDYFPEPVTVSWNSGALTSGVHTFPAVLQSSGLYSLSSVVTVPSSSLGTQTYICNVNHKPSNTKVDKRV[skipping human IgG1 Fc]
light: DIQMTQSPSSLSASVGDRVTITCRASQDISNYLNWYQQKPGKAPKLLIYYTSKLHSGVPSRFSGSGSGTDYTLTISSLQPEDFATYYCQQGSALPWTFGQGTKVEIKRTVAAPSVFIFPPSDEQLKSGTASVVCLLNNFYPREAKVQWKVDNALQSGNSQESVTEQDSKDSTYSLSSTLTLSKADYEKHKVYACEVTHQGLSSPVTKSFNRGEC
notes: Humanized from 9B12; human IgG1 kappa; also called humanized anti-human OX40 IgG1κ monoclonal antibody
B1: in the assay with Rat OX40, the binding result was “no binding (tested: 10 µg/mL)”. Further, the “mean EC50, NFκB-luciferase 2-cell assay, human Raji B cells + human OX40 Jurkat clone 64” value with Human OX40 [1] amounted to 1.11 nM. In assay [2], the binding result is “no binding (tested: 1 µg/mL)”. In the assay with Human OX40 [3], this molecule showed a Kd of 0.424 nM. Moreover, in the assay with Human OX40 [4], the concentration for a half-maximal effect (EC50) was 0.312 nM. The “EC50, TNFα release, donor 645” value in the assay with Human OX40 [5] is 0.0541 nM. In the assay with Human OX40 [6], the “EC50, IL13 release, donor 645” value was found to be 0.0738 nM and the “EC50, IL13 release, donor 651” value was found to be 0.065 nM.

Source of the values: US20160137740A1 (AstraZeneca / MedImmune, published 2016).
